Measured values from PMC4336329 (PLoS ONE, 2015).
Out of some 310,000 compounds screened, about 14,000 (4.5%) showed an effect of 50% or more. The effect is printed as a negative number. Some of the results follow.

molecular target: human ether-à-go-go-related gene (hERG) potassium channel (human, UniProt Q12809); experiment: primary screen, population patch clamp on CHO cells stably expressing hERG
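Further: peak tail current of the secondary pulse compared with the same well before compound.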

Sequence of human ether-à-go-go-related gene (hERG) potassium channel (Q12809 whole entry, looked up): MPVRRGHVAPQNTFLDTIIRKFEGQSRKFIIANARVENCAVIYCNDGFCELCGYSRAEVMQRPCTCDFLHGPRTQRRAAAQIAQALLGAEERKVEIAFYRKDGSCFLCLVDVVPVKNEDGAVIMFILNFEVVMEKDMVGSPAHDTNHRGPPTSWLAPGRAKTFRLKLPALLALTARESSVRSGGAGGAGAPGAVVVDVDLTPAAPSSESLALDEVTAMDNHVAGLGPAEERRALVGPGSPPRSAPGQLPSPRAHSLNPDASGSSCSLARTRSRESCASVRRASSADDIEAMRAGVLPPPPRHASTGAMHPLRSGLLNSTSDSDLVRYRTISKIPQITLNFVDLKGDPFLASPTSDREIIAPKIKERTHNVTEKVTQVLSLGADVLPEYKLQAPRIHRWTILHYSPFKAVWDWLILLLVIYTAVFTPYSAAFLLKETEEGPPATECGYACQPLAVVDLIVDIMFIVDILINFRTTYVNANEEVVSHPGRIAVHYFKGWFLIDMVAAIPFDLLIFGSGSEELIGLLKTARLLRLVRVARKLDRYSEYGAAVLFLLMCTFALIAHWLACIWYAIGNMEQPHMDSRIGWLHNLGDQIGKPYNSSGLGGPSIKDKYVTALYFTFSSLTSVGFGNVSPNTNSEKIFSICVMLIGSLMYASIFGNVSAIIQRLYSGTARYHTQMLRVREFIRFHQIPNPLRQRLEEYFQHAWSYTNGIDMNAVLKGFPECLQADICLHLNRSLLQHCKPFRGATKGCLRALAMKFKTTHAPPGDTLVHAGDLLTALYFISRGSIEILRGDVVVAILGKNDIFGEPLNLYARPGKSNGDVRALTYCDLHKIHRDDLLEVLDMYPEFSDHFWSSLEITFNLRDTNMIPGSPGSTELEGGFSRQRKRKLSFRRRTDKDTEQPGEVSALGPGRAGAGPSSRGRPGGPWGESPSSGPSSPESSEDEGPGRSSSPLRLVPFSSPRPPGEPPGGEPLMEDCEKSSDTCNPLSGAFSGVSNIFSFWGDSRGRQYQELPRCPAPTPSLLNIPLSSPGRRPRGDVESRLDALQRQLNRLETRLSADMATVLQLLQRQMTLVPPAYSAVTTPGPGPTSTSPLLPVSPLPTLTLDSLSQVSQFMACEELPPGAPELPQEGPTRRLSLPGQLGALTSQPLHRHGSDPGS

| SMILES | hERG current change (%, negative = inhibition) at 10uM |
| --- | --- |
| COc1cc(C2C3=C(CC(C)(C)CC3=O)Nc3c2c(=O)[nH]c(=O)n3Cc2ccccc2)ccc1O (stereo not shown) | -11.1% |
| COc1cc(CNCCc2c[nH]c3ccccc23)cc(Cl)c1OCC(N)=O.Cl | -36.6% |
| CCOC(=O)c1ccccc1NC(=O)CN1CCC(n2nnc3cc(C(F)(F)F)ccc32)CC1 | -6.11% |
| COCCCNC(NC(=O)c1ccc(C)cc1)C(Cl)(Cl)Cl (stereo not shown) | -7.03% |
| CCCCCCCNC(=O)C1(CC2CC(c3ccc(Cl)cc3)=NO2)CCN(C(=O)c2ccccc2)CC1 (stereo not shown) | -15.8% |
| COc1ccc(C(=O)c2coc3ccc(O)c(CN(C)C)c23)cc1 | -57.9% |
| COc1cc2[nH]c(=O)n(CCC(=O)NCCCN3CCN(c4ccccc4F)CC3)c(=O)c2cc1OC | -35.4% |
| CCCCN1C(=S)SC(C)(C)C1/[N+]([O-])=C/c1ccc(S(=O)(=O)NC)cc1 (stereo not shown) | 12.2% |
| CCOc1ccc(C(=O)NCC(=O)OCCN2C(=O)c3ccccc3C2=O)cc1OCC | -11.8% |
| Cc1ccccc1N1C(=O)C(Cl)=C(N2CCCCCC2)C1=O | -13.6% |
| Cc1ccc2c(=O)cc(C(=O)NCc3ccccc3)oc2c1C | 14.9% |
| CCCSc1nnc(-c2c[nH]c3ccccc23)n1C | 6.2% |
| COc1ccc(N/C=C2\CCc3ccccc3C2=O)cc1 | 0.787% |
| CCOc1cc(/C=N/NC(=O)c2cc(-c3cccnc3)nc3ccccc23)ccc1O | 36% |
| O=C(O)CCCC(=O)Nc1ccccc1Oc1ccccc1 | 1.31% |
| O=c1c2ccccc2nc2n1C(CSCc1cccc(C(F)(F)F)c1)CS2 (stereo not shown) | -23.4% |
| COc1ccccc1NC(=O)COC(=O)C1C2CC3OC(=O)C1C3C2 (stereo not shown) | 5.63% |
| CCC(C(=O)OC)n1cnc2c(nnn2-c2ccc(C)cc2)c1=O (stereo not shown) | -11.8% |
| CCOC(=O)C1=C(C)N(CC)C(=S)NC1c1ccccc1OC(F)F (stereo not shown) | -13.6% |
| COCCn1nnnc1C(c1ccc(OC)c(OC)c1)N1CCN(c2nc3ccccc3s2)CC1 (stereo not shown) | -56.3% |
| COC(=O)[C@@H]1C(c2c(OC)cc(OC)cc2OC)=NO[C@H]1C(=O)OC | 12.3% |
| Cc1nnc(SCC(=O)N(C(C)C)C(C)C)[nH]c1=O | 6.59% |
| Cl.O=C(OCCN1CCOCC1)c1ccc2c(c1)OCCO2 | 3.89% |
| NC(=O)CC[C@@H]1NC(=O)[C@H](CO)NC(=O)c2cc([N+](=O)[O-])cc(I)c2NCCCC[C@@H](C(N)=O)NC(=O)[C@H](Cc2ccc(O)cc2)NC1=O | 15.5% |
| CCOC(=O)c1c(NC(=O)c2cccs2)sc2c1CCN(C(=O)OCC)C2 | -14.1% |
| Cn1c2ccc(F)cc2c2ncn(CCCN(CCO)CCO)c(=O)c21 | -40.2% |
| CCOC(=O)C/C(C)=N\Nc1ccc([N+](=O)[O-])cc1[N+](=O)[O-] | -40.2% |
| Cc1ccc(C)c(NC(=O)NC2CCCCCCC2)c1 | -3.25% |

| SMILES | hERG current change (%, negative = inhibition) at 10uM |
| --- | --- |
| CC(=O)Nc1ccc(N2CCc3c(C)c(C#N)c4nc5ccccc5n4c32)cc1 | 8.55% |
| O=C(NCCN1CCCCCC1)C1CCCN1S(=O)(=O)c1cccc2nsnc12 (stereo not shown) | -5.79% |
| CCc1cc2cc(C(=O)N3CCN(c4ccccc4)CC3)sc2s1 | 10.6% |
| CC(C)c1ccc(CN(C)C(=O)c2ccc(S(=O)(=O)NCc3ccco3)cc2)cc1 | -33.7% |
| CCC(=O)NNc1ncnc2ccccc12 | 9.38% |
| CCn1cc(C2=NCC(C)O2)c2ccccc21 (stereo not shown) | 3.98% |
| COC(=O)CSc1ccc(S(=O)(=O)N2CCOCC2)cc1[N+](=O)[O-] | -0.557% |
| CCNC(=O)Nc1ccccc1C(=O)OC | 12.1% |
| O=C(CSC1CCCCC1)N1CCN(c2ccccc2)CC1 | -7.87% |
| O=C(COC(=O)CN1C(=O)C(=O)c2ccccc21)OCN1C(=O)c2ccccc2C1=O | -9.43% |
| Cc1cc(C)c(OCC(=O)Nc2ccc(S(=O)(=O)N3CCCC3)cc2)c(C)c1 | -23.6% |
| O=C(Cc1ccccc1)NC(=S)Nc1ccc2oc(-c3ccccc3)nc2c1 | 10.5% |
| CCOC(=O)CNC(=O)CSc1nc2cccnc2n1C1CCCCC1 | 5.85% |
| CC(Oc1ccccc1F)c1ccnc2nc(/N=C/N(C)C)nn12 (stereo not shown) | 9.9% |
| O=[N+]([O-])c1ccc(C2=Nn3c(Cn4nnc5ccccc54)nnc3SC2)cc1 | -21.1% |
| COc1ccc(OCC(=O)Nc2ccc(N3CCC(C)CC3)cc2)cc1 | 12% |
| CCC(=O)Nc1ccc(Cl)c(-c2nc3ncccc3o2)c1 | -11% |
| O=C(O)CCn1cc(/C=C2\NC(=S)N(c3ccccc3)C2=O)c(-c2ccc(Br)cc2)n1 | 30.1% |
| CC(C)Nc1ncnc2c1nnn2Cc1ccccc1 | -2.54% |
| Cc1cc(=O)oc2cc(OCC(=O)NCCN3CCOCC3)ccc12 | 18.9% |
| Cc1cccc(C)c1NC(=O)CNC(=O)c1cn(-c2ccccc2)nc1-c1ccccc1 | 6.88% |
| CC12CCC(C(=O)NCc3ccco3)(OC1=O)C2(C)C (stereo not shown) | 2.02% |
| CCc1ccc(NC(=O)CSc2nnc(CC)c(CC)n2)cc1 | -19.5% |
| COCCCNC(=O)C(C)N1c2cccc3cccc(c23)S1(=O)=O (stereo not shown) | 12.3% |
| CC1=CC(C)(C)NC(=S)N1c1cccc2ccccc12 | 15.1% |
| O=C(CSc1nnc(NC(=O)c2cccc(F)c2)s1)NC1CC1 | 11.8% |
| COc1ccc(C2=NN(CCC(=O)NCc3ccc4c(c3)OCO4)C(=O)CC2)cc1 | -18.8% |
